The values below come from US10870625B2, “Zwitterionic propargyl-linked antifolates useful for treating bacterial infections” (THE UNIVERSITY OF CONNECTICUT, priority 2016, dated 2020).

The test system of test [1] is Sa(F98Y) strain.
Test [2] has as its system Sa(H30N, F98Y) strain.
Test [3] concerns Sa(H149R) strain.
In test [4] the test system is Sa(F98Y, H149R) strain.
Another test deals with Sa43300(F98Y). In kind it is cell-based, Staphylococcus aureus. The conditions noted are these: progenitor Sa(F98Y), 6× MIC.
Test [5] concerns Sa(F98Y, H149R) strain. The test can be described thus: microbe, parasite or virus in culture. The conditions noted are these: Staphylococcus aureus, read-out: MIC Sa(F98Y, H149R).
Test [6] concerns Sa(H149R) strain. The test can be described thus: microbe, parasite or virus in culture. The conditions noted are these: Staphylococcus aureus, read-out: MIC Sa(H149R).
Test [7] deals with Sa(F98Y) strain. Kind of test: microbe, parasite or virus in culture. As to conditions: Staphylococcus aureus, read-out: MIC Sa(F98Y).
Test [8] deals with Sa(H30N, F98Y) strain. The test can be described thus: microbe, parasite or virus in culture. As to conditions: Staphylococcus aureus, read-out: MIC Sa(H30N, F98Y).
The test system of the next test is Sa43300(H149R). In kind it is cell-based, Staphylococcus aureus. The conditions noted are these: progenitor Sa(H149R), 6× MIC.

Values after ≈ are worked out from the molar mass of the structure shown.

Regarding `CCc1nc(N)nc(N)c1C#C[C@H](C)c1cc(OC)cc(-c2ccc(C(=O)O)cc2)c1` [Compound 31], in the test with Sa(F98Y) strain [1], the “MIC Sa(F98Y)” value was found to be 0.0781 µg/mL (≈ 0.188 µM). Also, in the test on Sa(H30N, F98Y) strain [2], the “MIC Sa(H30N, F98Y)” value was found to be 1.25 µg/mL (≈ 3 µM). Besides, the “MIC Sa(H149R)” value against Sa(H149R) strain [3] stood at 0.0391 µg/mL (≈ 0.0939 µM). For the same compound, in the test with Sa(F98Y, H149R) strain [4], the “MIC Sa(F98Y, H149R)” value amounted to 2.5 µg/mL (≈ 6 µM).
Regarding `CCc1nc(N)nc(N)c1C#CC(C)c1cc2c(c(-c3ccncc3)c1)OCO2` (stereo not drawn) [Compound B, reference compound], the “MIC Sa(F98Y)” value with Sa(F98Y) strain [1] is 1.25 µg/mL (≈ 3.23 µM). Moreover, the “MIC Sa(H30N, F98Y)” value in the test on Sa(H30N, F98Y) strain [2] is 40 µg/mL (≈ 103 µM). Further, the “MIC Sa(H149R)” value against Sa(H149R) strain [3] is 5 µg/mL (≈ 12.9 µM). Besides, the “MIC Sa(F98Y, H149R)” value against Sa(F98Y, H149R) strain [4] is 40 µg/mL (≈ 103 µM).
Take `CCc1nc(N)nc(N)c1C#CCc1cc(OC)cc(-c2ccc(C(=O)O)cc2)c1` [Compound 16]: the “MIC Sa(F98Y)” value in the test on Sa(F98Y) strain [1] stood at 0.1563 µg/mL (≈ 0.388 µM). Besides, in the test with Sa(H30N, F98Y) strain [2], the “MIC Sa(H30N, F98Y)” value was 5 µg/mL (≈ 12.4 µM). The “MIC Sa(H149R)” value in the test with Sa(H149R) strain [3] worked out at 0.1563 µg/mL (≈ 0.388 µM). Also, in the test on Sa(F98Y, H149R) strain [4], the “MIC Sa(F98Y, H149R)” value stood at 10 µg/mL (≈ 24.8 µM).
As for `CCc1nc(N)nc(N)c1C#CC(C)c1cc(-c2ccncc2)ccc1OC` (racemic) [C, reference compound], the “MIC Sa(F98Y)” value against Sa(F98Y) strain [1] is 2.5 µg/mL (≈ 6.69 µM). The “MIC Sa(H30N, F98Y)” value in the test on Sa(H30N, F98Y) strain [2] is 20 µg/mL (≈ 53.6 µM). Besides, the “MIC Sa(H149R)” value against Sa(H149R) strain [3] is 2.5 µg/mL (≈ 6.69 µM). The “MIC Sa(F98Y, H149R)” value in the test on Sa(F98Y, H149R) strain [4] was determined as 40 µg/mL (≈ 107 µM).
Turning to `CCc1nc(N)nc(N)c1C#CC(C)c1cc(OC)cc(-c2ccncc2)c1` (stereo not drawn) [Compound D, reference compound], the “MIC Sa(F98Y)” value with Sa(F98Y) strain [1] amounted to 0.625 µg/mL (≈ 1.67 µM). Also, the “MIC Sa(H30N, F98Y)” value in the test on Sa(H30N, F98Y) strain [2] came to 40 µg/mL (≈ 107 µM). Moreover, in the test on Sa(H149R) strain [3], the “MIC Sa(H149R)” value was 0.625 µg/mL (≈ 1.67 µM). In the test with Sa(F98Y, H149R) strain [4], the “MIC Sa(F98Y, H149R)” value turned out to be 20 µg/mL (≈ 53.6 µM).
As for `CCc1nc(N)nc(N)c1C#C[C@@H](C)c1cc(OC)cc(-c2ccc(C(=O)O)cc2)c1` [Compound 32], the “MIC Sa(F98Y)” value against Sa(F98Y) strain [1] worked out at 0.0781 µg/mL (≈ 0.188 µM). In addition, the “MIC Sa(H30N, F98Y)” value in the test on Sa(H30N, F98Y) strain [2] came out at 1.25 µg/mL (≈ 3 µM). Also, in the test with Sa(H149R) strain [3], the “MIC Sa(H149R)” value turned out to be 0.0781 µg/mL (≈ 0.188 µM). Also, the “MIC Sa(F98Y, H149R)” value in the test with Sa(F98Y, H149R) strain [4] was 1.25 µg/mL (≈ 3 µM).
As to `CCc1nc(N)nc(N)c1C#CC(C)c1cc2c(c(-c3ccncc3)c1)OCO2` (stereo not drawn) [F, reference compound], the “MIC Sa(F98Y)” value in the test on Sa(F98Y) strain [1] amounted to 1.25 µg/mL (≈ 3.23 µM). Besides, the “MIC Sa(H30N, F98Y)” value with Sa(H30N, F98Y) strain [2] came to 20 µg/mL (≈ 51.6 µM). In addition, in the test with Sa(H149R) strain [3], the “MIC Sa(H149R)” value came out at 2.5 µg/mL (≈ 6.45 µM). Moreover, in the test on Sa(F98Y, H149R) strain [4], the “MIC Sa(F98Y, H149R)” value was determined as 20 µg/mL (≈ 51.6 µM).
Take `CCc1nc(N)nc(N)c1C#C[C@@H](C)c1cc(-c2ccncc2)ccc1OC` [E, reference compound]: the “MIC Sa(F98Y)” value with Sa(F98Y) strain [1] is 1.25 µg/mL (≈ 3.35 µM). The “MIC Sa(H30N, F98Y)” value in the test on Sa(H30N, F98Y) strain [2] is 10 µg/mL (≈ 26.8 µM). Also, the “MIC Sa(H149R)” value against Sa(H149R) strain [3] is 1.25 µg/mL (≈ 3.35 µM). In addition, the “MIC Sa(F98Y, H149R)” value in the test with Sa(F98Y, H149R) strain [4] was 20 µg/mL (≈ 53.6 µM).
Regarding `CCc1nc(N)nc(N)c1C#CC(C)c1cc(OC)cc(-c2ccncc2)c1` (stereo not drawn) [Compound A], the “Mutational Frequency of DHFR mutation F98Y/H30N” value in the test with Sa43300(F98Y) was 8.2 × 10^−12. The MIC with Sa(F98Y, H149R) strain [5] turned out to be 80 µg/mL (≈ 214 µM); in the test with Sa(H149R) strain [6], 2.5 µg/mL (≈ 6.69 µM); in the test with Sa(F98Y) strain [7] it was 2.5 µg/mL (≈ 6.69 µM); with Sa(H30N, F98Y) strain [8], 20 µg/mL (≈ 53.6 µM). In the test on Sa43300(H149R), the “Mutational Frequency of DHFR mutation F98Y/H149R” value is on record as 1.23 × 10^−11.
For `COc1cc(Cc2cnc(N)nc2N)cc(OC)c1OC` [TMP, trimethoprim], the MIC turned out to be 100 µg/mL (≈ 344 µM) with Sa(F98Y, H149R) strain [5]; 2.5 µg/mL (≈ 8.61 µM) with Sa(H149R) strain [6]; 10 µg/mL (≈ 34.4 µM) with Sa(F98Y) strain [7]; 50 µg/mL (≈ 172 µM) in the test with Sa(H30N, F98Y) strain [8].
As to `CCc1nc(N)nc(N)c1C#CCc1cc(OC)c(OC)c(-c2ccncc2)c1` [Compound 60], the “MIC Sa(F98Y)” value in the test on Sa(F98Y) strain [1] amounted to 0.625 µg/mL (≈ 1.6 µM). In the test with Sa(H30N, F98Y) strain [2], the “MIC Sa(H30N, F98Y)” value stood at 20 µg/mL (≈ 51.4 µM). Moreover, the “MIC Sa(H149R)” value against Sa(H149R) strain [3] is 0.625 µg/mL (≈ 1.6 µM). For the same compound, the “MIC Sa(F98Y, H149R)” value in the test with Sa(F98Y, H149R) strain [4] came out at 40 µg/mL (≈ 103 µM).
Turning to `CCc1nc(N)nc(N)c1C#CCc1cc(-c2ccc(C(=O)O)cc2)ccc1OC` [Compound 15], in the test on Sa(F98Y) strain [1], the “MIC Sa(F98Y)” value was determined as 0.1563 µg/mL (≈ 0.388 µM). Moreover, in the test on Sa(H30N, F98Y) strain [2], the “MIC Sa(H30N, F98Y)” value was 6.25 µg/mL (≈ 15.5 µM). Moreover, the “MIC Sa(H149R)” value against Sa(H149R) strain [3] turned out to be 0.1564 µg/mL (≈ 0.389 µM). In the test on Sa(F98Y, H149R) strain [4], the “MIC Sa(F98Y, H149R)” value is over 50 µg/mL.
Take `CCc1nc(N)nc(N)c1C#CC(SC)c1cc(-c2ccc(C(=O)O)cc2)ccc1OC` (stereo not drawn) [Compound 29]: in the test with Sa(F98Y) strain [1], the “MIC Sa(F98Y)” value was determined as 0.1563 µg/mL (≈ 0.348 µM). Moreover, the “MIC Sa(H30N, F98Y)” value with Sa(H30N, F98Y) strain [2] was over 40 µg/mL. Moreover, in the test with Sa(H149R) strain [3], the “MIC Sa(H149R)” value amounted to 0.0781 µg/mL (≈ 0.174 µM). Also, the “MIC Sa(F98Y, H149R)” value in the test with Sa(F98Y, H149R) strain [4] was over 40 µg/mL.
